Changes are numbered by the printed parent chain. No constants are given. Whether binding was seen depends on the method and setting. In cells and extracts the contact can be indirect. Some entries that bind do so weakly or less than the wild type. Where a sequence is shown, tags or fusion partners need not be part of it.
Key:
[1] = target: T1, FLAG-UPF1 VV204-205DI (human) (UniProt Q92900); experiment: co-IP; anti-FLAG IP from HEK293T cells cotransfected with FLAG-UPF1 (wild-type or mutants) and T7-DHX34 (wild-type or ATPase mutants); RNase A in Figure 3C; T7-DHX34 by western blot
T1 sequence: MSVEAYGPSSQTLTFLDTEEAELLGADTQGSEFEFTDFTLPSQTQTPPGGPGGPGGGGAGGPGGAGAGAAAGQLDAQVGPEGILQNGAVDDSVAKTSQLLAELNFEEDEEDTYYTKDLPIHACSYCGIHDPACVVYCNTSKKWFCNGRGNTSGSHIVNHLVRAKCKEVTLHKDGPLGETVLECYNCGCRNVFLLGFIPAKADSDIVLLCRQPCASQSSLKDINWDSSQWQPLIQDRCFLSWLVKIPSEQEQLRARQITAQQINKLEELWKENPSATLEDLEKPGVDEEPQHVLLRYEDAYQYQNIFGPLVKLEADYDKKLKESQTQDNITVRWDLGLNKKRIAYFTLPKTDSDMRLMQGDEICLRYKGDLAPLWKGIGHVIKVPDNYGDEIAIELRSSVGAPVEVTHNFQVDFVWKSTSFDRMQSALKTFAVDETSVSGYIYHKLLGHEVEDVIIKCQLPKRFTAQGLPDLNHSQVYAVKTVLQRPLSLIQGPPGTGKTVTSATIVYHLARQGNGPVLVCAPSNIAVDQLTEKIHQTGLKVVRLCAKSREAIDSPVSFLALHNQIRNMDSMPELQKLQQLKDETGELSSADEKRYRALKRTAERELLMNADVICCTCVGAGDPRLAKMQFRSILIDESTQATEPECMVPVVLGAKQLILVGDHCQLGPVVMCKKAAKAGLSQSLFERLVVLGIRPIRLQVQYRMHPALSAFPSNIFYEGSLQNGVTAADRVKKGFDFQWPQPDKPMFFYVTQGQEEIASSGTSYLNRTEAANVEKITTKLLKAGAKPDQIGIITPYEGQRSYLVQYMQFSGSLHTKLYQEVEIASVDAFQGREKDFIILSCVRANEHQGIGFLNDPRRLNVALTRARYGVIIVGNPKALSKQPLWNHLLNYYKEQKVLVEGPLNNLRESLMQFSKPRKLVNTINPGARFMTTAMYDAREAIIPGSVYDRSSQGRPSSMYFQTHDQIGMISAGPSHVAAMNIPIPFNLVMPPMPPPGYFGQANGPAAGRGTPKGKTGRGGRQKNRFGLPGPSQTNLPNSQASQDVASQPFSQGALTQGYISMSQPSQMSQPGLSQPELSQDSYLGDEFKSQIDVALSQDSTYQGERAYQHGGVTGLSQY

[2] = target: T2, FLAG-UPF1 C126S (human) (UniProt Q92900); experiment: as above
T2 sequence: T1 sequence with C126S, D204V, I205V

- binding [1]: binds
- binding [2]: binds
B1: T7-DHX34 (wild-type) (protein, UniProt Q14147 1-1143)
chain: MPPPRTREGRDRRDHHRAPSEEEALEKWDWNCPETRRLLEDAFFREEDYIRQGSEECQKFWTFFERLQRFQNLKTSRKEEKDPGQPKHSIPALADLPRTYDPRYRINLSVLGPATRGSQGLGRHLPAERVAEFRRALLHYLDFGQKQAFGRLAKLQRERAALPIAQYGNRILQTLKEHQVVVVAGDTGCGKSTQVPQYLLAAGFSHVACTQPRRIACISLAKRVGFESLSQYGSQVGYQIRFESTRSAATKIVFLTVGLLLRQIQREPSLPQYEVLIVDEVHERHLHNDFLLGVLQRLLPTRPDLKVILMSATINISLFSSYFSNAPVVQVPGRLFPITVVYQPQEAEPTTSKSEKLDPRPFLRVLESIDHKYPPEERGDLLVFLSGMAEISAVLEAAQTYASHTQRWVVLPLHSALSVADQDKVFDVAPPGVRKCILSTNIAETSVTIDGIRFVVDSGKVKEMSYDPQAKLQRLQEFWISQASAEQRKGRAGRTGPGVCFRLYAESDYDAFAPYPVPEIRRVALDSLVLQMKSMSVGDPRTFPFIEPPPPASLETAILYLRDQGALDSSEALTPIGSLLAQLPVDVVIGKMLILGSMFSLVEPVLTIAAALSVQSPFTRSAQSSPECAAARRPLESDQGDPFTLFNVFNAWVQVKSERSRNSRKWCRRRGIEEHRLYEMANLRRQFKELLEDHGLLAGAQAAQVGDSYSRLQQRRERRALHQLKRQHEEGAGRRRKVLRLQEEQDGGSSDEDRAGPAPPGASDGVDIQDVKFKLRHDLAQLQAAASSAQDLSREQLALLKLVLGRGLYPQLAVPDAFNSSRKDSDQIFHTQAKQGAVLHPTCVFAGSPEVLHAQELEASNCDGSRDDKDKMSSKHQLLSFVSLLETNKPYLVNCVRIPALQSLLLFSRSLDTNGDCSRLVADGWLELQLADSESAIRLLAASLRLRARWESALDRQLAHQAQQQLEEEEEDTPVSPKEVATLSKELLQFTASKIPYSLRRLTGLEVQNMYVGPQTIPATPHLPGLFGSSTLSPHPTKGGYAVTDFLTYNCLTNDTDLYSDCLRTFWTCPHCGLHAPLTPLERIAHENTCPQAPQDGPPGAEEAALETLQKTSVLQRPYHCEACGKDFLFTPTEVLRHRKQHV

From PMC4534575, “The RNA Helicase DHX34 Activates NMD by Promoting a Transition from the Surveillance to the Decay-Inducing Complex” (Cell Reports, 2014)
